Laboratory results taken from PubChem BioAssay AID1460 (National Center for Advancing Translational Sciences (NCATS), 2008).
The whole screen tested about 270,000 compounds, of which about 5,800 (2.1%) were called active. The shares of active, inactive and inconclusive entries below differ from those in the screen. Calls follow the shape of the dose curve; as a rule, active = well fitted inhibition curve with a large enough effect; inconclusive = small, poorly fitted or top-dose-only effect; inactive = flat fitted curve, though single readings scatter. Potencies of inconclusive entries are doubtful fits and often do not repeat.

What follows are compounds tested against Microtubule-associated protein tau (Homo sapiens) (UniProt P10636) (assay: qHTS for Inhibitors of Tau Fibril Formation, Thioflavin T Binding). Conditions: recombinant tau K18 P301L (four-repeat tau fragment), heparin-induced fibrillization, ThT fluorescence; series mostly up to 57.4 µM; activity, negative = inhibition: at the top concentration.
How it was run: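 Tau K18 P301L fragment (15 uM unlabeled plus 0.24 uM Alexa 594-labeled) in 100 mM sodium acetate pH 7 with compound, fibrillization induced by 20 uM heparin for 6 hr at 37 C. Thioflavin T (30 uM) added, fluorescence read after 1 hr (ex 450, em 510 nm).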
% is scaled to controls: 0 for no effect and ±100 for the full control effect; potency is read from the fitted curve at half-maximal effect; tags tell the direction and shape of the fitted curve.
Also: nearly all actives have a fitted effect of over 55% in size.

UniProt P10636, sequence (P10636 whole entry, looked up, the tested form may be a part): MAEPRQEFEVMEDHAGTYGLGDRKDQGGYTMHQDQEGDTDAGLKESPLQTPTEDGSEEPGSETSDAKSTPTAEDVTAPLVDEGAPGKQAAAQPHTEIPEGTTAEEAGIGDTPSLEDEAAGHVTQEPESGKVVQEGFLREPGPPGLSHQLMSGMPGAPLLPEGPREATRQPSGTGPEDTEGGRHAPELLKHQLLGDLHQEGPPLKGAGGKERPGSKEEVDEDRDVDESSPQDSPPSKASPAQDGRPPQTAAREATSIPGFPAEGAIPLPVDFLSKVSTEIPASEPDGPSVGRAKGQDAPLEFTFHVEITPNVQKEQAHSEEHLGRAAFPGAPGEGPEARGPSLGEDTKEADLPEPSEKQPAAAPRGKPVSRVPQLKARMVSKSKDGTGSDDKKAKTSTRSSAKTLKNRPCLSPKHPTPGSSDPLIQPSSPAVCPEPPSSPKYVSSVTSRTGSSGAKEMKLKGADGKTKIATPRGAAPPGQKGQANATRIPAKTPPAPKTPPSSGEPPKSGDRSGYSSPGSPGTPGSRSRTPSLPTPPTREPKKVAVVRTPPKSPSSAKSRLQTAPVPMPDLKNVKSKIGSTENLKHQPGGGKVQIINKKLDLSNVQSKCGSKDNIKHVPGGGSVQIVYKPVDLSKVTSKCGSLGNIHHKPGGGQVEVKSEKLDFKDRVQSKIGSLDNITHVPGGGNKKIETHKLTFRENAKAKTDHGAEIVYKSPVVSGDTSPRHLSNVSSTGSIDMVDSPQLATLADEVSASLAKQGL

| Compound | activity, negative = inhibition | Potency |
| --- | --- | --- |
| COc1ccc2c(c1OC)C(=O)N(c1cccc(C)c1)C2=O | inactive: 1.25% |  |
| Cc1cccc(C(=O)n2nc(C)c(S(=O)(=O)N3CCOCC3)c2C)c1 |  | inconclusive: 3.16 µM [inhibitor, full curve] |
| CCOc1cc(/C=C2\SC(=Nc3ccccc3)N(c3ccccc3)C2=O)ccc1OCC(=O)O |  | inconclusive: 28.2 µM [inhibitor, single point] |
| CCOc1ccccc1NC1=C(Cl)C(=O)N(c2ccc(OC)cc2)C1=O |  | inconclusive: 12.6 µM [inhibitor, partial curve] |
| CC[C@@]1(O)C(=O)OCc2c1cc1n(c2=O)Cc2cc3c(CN(C)C)c(O)ccc3nc2-1 |  | inconclusive: 28.2 µM [activator, single point] |
| O=c1oc2cc(Oc3c([N+](=O)[O-])cc(C(F)(F)F)cc3[N+](=O)[O-])ccc2c2c1CCCC2 |  | inconclusive: 20 µM [inhibitor, partial curve] |
| CC(=O)c1c(C)[nH]c(C(=O)OCc2nnc(-c3ccccc3)o2)c1C |  | inconclusive: 3.16 µM [inhibitor, full curve] |
| COC(=O)c1ccccc1NC(=O)c1cccc(NC(=O)c2ccc(Br)o2)c1C |  | inconclusive: 28.2 µM [inhibitor, single point] |
| Cc1cc2nc(C)c(=O)n(C)c2cc1C | inactive: 1.49% |  |
| Cc1ccc(SCc2cc(=O)[nH]c(Nc3nc(C)c4ccc(C)cc4n3)n2)cc1 |  | inconclusive: 3.98 µM [inhibitor, full curve] |
| O=C(COc1ccccc1)NCC(=O)N/N=C/c1ccco1 | inactive: 12.8% |  |
| N#C/C(=C\c1c[nH]c2ccccc12)C(=O)Nc1ncc(Cc2ccc(Cl)cc2Cl)s1 |  | inconclusive: 5.62 µM [inhibitor, full curve, poor fit] |
| O=[N+]([O-])c1ccc(NCCCNS(=O)(=O)c2ccccc2)c(Cl)c1 |  | inconclusive: 28.2 µM [inhibitor, single point] |
| CCCCNC(=O)CN1C(=O)c2cccc(N)c2C1=O |  | inconclusive: 20 µM [activator, partial curve, poor fit] |
| COc1ccc(OCc2nn3c(-c4ccco4)nnc3s2)cc1 |  | inconclusive: 20 µM [inhibitor, single point] |
| Cc1cc(C)n(-c2ccc(C(=O)C(C#N)c3nc4ccccc4n3C)cc2)n1 (stereo unspecified) |  | inconclusive: 2.51 µM [inhibitor, full curve] |
| O=c1[nH]cnc2c1sc1nc(-c3ccccc3)c3c(c12)CCCC3 | inactive: -12.1% |  |
| CC(=O)c1c(C)[nH]c(C(=O)N(C)C(c2ccccc2)c2ccccc2)c1C | inactive: -2.87% |  |
| Cc1cc(C)n(C(C)CC(=O)Nc2ccc(Cl)cc2C)n1 (stereo unspecified) | inactive: 4.45% |  |
| Cc1cccc(CNc2nc(-c3ccc(C(=O)N(C)C)cc3)nc3ccccc23)c1 | inactive: 3.53% |  |
| Cc1ccccc1NS(=O)(=O)c1ccc(F)cc1 | inactive: -6.13% |  |
| C=CCn1c(SCC(=O)c2cc(C)n(C(C)COC)c2C)nc2sc(C)c(C)c2c1=O (stereo unspecified) |  | inconclusive: 10 µM [inhibitor, partial curve] |
| CC(=O)Nc1cc(OC(=O)c2ccco2)cc(OC(=O)c2ccco2)c1 |  | inconclusive: 14.1 µM [inhibitor, partial curve] |
| Cc1ccc(N(C)S(=O)(=O)c2ccc3[nH]c(=O)ccc3c2)cc1 | inactive: -1.04% |  |

| Compound | activity, negative = inhibition | Potency |
| --- | --- | --- |
| c1ccc(NCCCNc2ccccc2)cc1 |  | inconclusive: 3.55 µM [inhibitor, full curve] |
| O=C1c2ccccc2-c2c1cccc2C(=O)N1CCCCC1 | inactive: -10.9% |  |
| CCC(=O)NC(=S)Nc1ccc(NC(=O)c2ccco2)cc1 |  | inconclusive: 11.2 µM [inhibitor, partial curve] |
| COc1ccc(C/C(N)=N/n2cnnc2)cc1 | inactive: 4.27% |  |
| CCOc1ccc(NC(=O)CCc2c(C)nc3cc(-c4ccccc4OC)nn3c2C)cc1 |  | inconclusive: 12.6 µM [inhibitor, partial curve, poor fit] |
| CCN(CC)S(=O)(=O)c1cccc(NN=c2c(=O)c3ccccc3c2=O)c1 |  | inconclusive: 39.8 µM [inhibitor, single point] |
| N#CC1=C(N)Oc2c(ccc3ccccc23)C1c1ccsc1 (stereo unspecified) |  | inconclusive: 20 µM [inhibitor, single point] |
| Cc1cc(C)cc(-n2ccn(CC(=O)c3ccc(F)cc3)c(=O)c2=O)c1 | inactive: -4.04% |  |
| COc1cccc(-c2cc3nc4c(c(N5CCC6(CC5)OCCO6)n3n2)CCCC4)c1 |  | inconclusive: 35.5 µM [inhibitor, single point] |
| CCC1CCCCN1C(=O)c1c[nH]c2ccc(S(=O)(=O)Nc3cccc(OC)c3)cc2c1=O (stereo unspecified) | inactive: -7.75% |  |
| CCCCCS(=O)(=O)CCCCCCCCCCn1c(-c2ccc(O)cc2)c(C)c2cc(O)ccc21 |  | inconclusive: 20 µM [inhibitor, partial curve, poor fit] |
| COC(=O)c1scc(-c2ccc(C)cc2)c1S(=O)(=O)N1CCN(c2ccc(F)cc2)CC1 | inactive: -15.1% |  |
| CC(C)(C)C1CCc2c(sc3nc(SCC(N)=O)nc(N)c23)C1 (stereo unspecified) |  | inconclusive: 35.5 µM [inhibitor, partial curve, poor fit] |
| CCCN1C(=O)c2cc(C(=O)NC3CCCCCC3)ccc2C1O (stereo unspecified) | inactive: -13% |  |
| Cc1nnc(N/N=C/c2ccc([N+](=O)[O-])cc2)n1N |  | inconclusive: 22.4 µM [inhibitor, partial curve] |
| COc1ccc(CN=Cc2c(C(=O)O)[nH]c3ccccc23)cc1 | inactive: -1.95% |  |
| COc1ccccc1NC(C#N)c1ccccc1OCc1ccccc1 (stereo unspecified) | inactive: -3.91% |  |
| CCOc1ccc(-n2c(C)nc3cc(C(=O)NC4CCCC4)ccc32)cc1 |  | inconclusive: 15.8 µM [inhibitor, single point] |
| Cn1c(C(=O)N2CCN(C(=O)c3ccco3)CC2)cc2c(=O)n(C)c3ccccc3c21 | inactive: -8.6% |  |
| COc1ccc(NC(=O)CCSc2cc(C)c3ccccc3n2)cc1 |  | inconclusive: 7.08 µM [inhibitor, partial curve] |
| CCCNC(=O)Cn1nc(-c2ccc(OC)cc2)c2cnc3ccc(F)cc3c21 | inactive: -9.34% |  |
| O=C(NCCNC(=O)c1cc(OCC(F)(F)F)ccc1OCC(F)(F)F)Nc1cccc(C(F)(F)F)c1 | inactive: -19.2% |  |
| C(=C/c1nccc2c1[nH]c1ccccc12)/c1ccc2c(c1)OCO2 |  | inconclusive: 4.47 µM [inhibitor, partial curve] |
| O=C(c1ccc(COc2ccc3ccccc3c2)o1)N1N=C(C(F)F)CC1(O)C(F)F (stereo unspecified) |  | inconclusive: 0.794 µM [inhibitor, partial curve, poor fit] |

| Compound | activity, negative = inhibition | Potency |
| --- | --- | --- |
| Cc1cccc(C2=Nc3ccccc3N=C(c3cc(Cl)ccc3O)C2)c1 |  | inconclusive: 1 µM [inhibitor, full curve, poor fit] |
| O=C1C=C[C@@H](O)[C@H]2[C@@H]3C(=O)N(Cc4ccc5c(c4)OCO5)C(=O)[C@@H]3CC[C@H]12 | inactive: -8.81% [at 11.5 µM] |  |
| Cc1ccc(S(=O)(=O)N2CCC(=O)N(C(COCc3ccc(Cl)cc3)C(C)C)CC2)cc1 (stereo unspecified) |  | inconclusive: 35.5 µM [inhibitor, partial curve] |
| COc1ccc(-c2c(C)nn3c(C(F)(F)F)cc(-c4ccc(C)cc4)nc23)cc1 | inactive: -11.7% |  |
| CCOc1ccsc1C(=O)O | inactive: -6.03% |  |
| CCOc1ccc(C(=O)Nc2ccc3nc(Nc4cccc(C(F)(F)F)c4)cc(C)c3c2)cc1OCC |  | inconclusive: 3.98 µM [inhibitor, full curve] |
| CCCCCCOC(=O)c1ccccc1NC(=O)/C=C/C(=O)O |  | inconclusive: 20 µM [inhibitor, partial curve] |
| Cc1cccc2sc(NC(=O)CCNS(=O)(=O)c3cccc4nonc34)nc12 |  | inconclusive: 17.8 µM [inhibitor, partial curve] |
| COc1ccc(-c2ccc(-c3noc(C)n3)c(OC)n2)cc1 |  | inconclusive: 5.62 µM [inhibitor, partial curve] |
| O=C(Nc1ccc(NC(=O)c2sc3ccccc3c2Cl)cc1)c1ccco1 |  | inconclusive: 0.199 µM [inhibitor, full curve] |
| CCOC(=O)c1sc2nccc(N(C)C)c2c1N=CNOCc1c(F)cccc1Cl |  | inconclusive: 15.8 µM [inhibitor, partial curve, poor fit] |
| CC(=O)c1cccc(NS(=O)(=O)c2ccc3[nH]c4c(c3c2)CCCCC4)c1 | inactive: -1.78% |  |
| O=C1N=C(N2CCOCC2)SC1=C1CCCCC1 | inactive: -5.47% |  |
| CC(C)C(Sc1nc(-c2ccccc2)cc(-c2ccccc2)c1C#N)C(=O)O (stereo unspecified) |  | inconclusive: 20 µM [inhibitor, partial curve, poor fit] |
| NC(=S)NNc1ccnc2cc(Cl)ccc12 |  | inconclusive: 17.8 µM [inhibitor, partial curve] |
| COc1ccc2c(CC(=O)OCC(=O)NC(=O)c3cccn3C)coc2c1 |  | inconclusive: 1 µM [inhibitor, full curve] |
| N#Cc1ccc(C(=O)Nc2nnc(-c3ccccn3)o2)cc1 | inactive: -3.88% |  |
| COCCN(C(=O)CSc1nnc(C)n1Cc1ccccc1)c1c(N)n(Cc2ccccc2)c(=O)[nH]c1=O | inactive: -3.7% |  |
| COc1ccc(-n2cc(-c3ccccc3)c3c(=O)[nH]cnc32)cc1 |  | inconclusive: 28.2 µM [inhibitor, single point] |
| Cc1ccccc1NS(=O)(=O)c1ccc2[nH]cc(C(=O)NCCc3ccccc3)c(=O)c2c1 | inactive: 7.63% |  |
| CCN(CC)c1ccc(C(=O)N/N=C/c2ccccc2OC(F)F)cc1 |  | inconclusive: 39.8 µM [inhibitor, single point] |
| COC(=O)c1cnc(N2CCN(c3ccc(OC)cc3)CC2)c2ccccc12 |  | active: 11.2 µM |
| COc1ccc(-n2c(CN3CCC(C)CC3)nc3ccc([N+](=O)[O-])cc3c2=O)c(OC)c1 |  | inconclusive: 22.4 µM [inhibitor, partial curve] |
